From ChEMBL document CHEMBL1157539, “Thousands of chemical starting points for antimalarial lead identification” (Nature, 2010)
The full ranking holds about 13,000 compounds; the median of “IFI” is about 4, and the highest 2% start at about 17. This is one part of the list.

Assay: GSK_TCMDC: Inhibition Frequency Index (IFI). The number of non-kinase HTS assays where a compound showed > 50 % inhibition, expressed as a percentage of the number of such assays in which the compound was tested (-0 is zero)
Type: functional

In order of rising IFI:
1. Cc1[nH]c(C)c(-c2ccc(OCCCc3ccccn3)cc2)c(=O)c1Br  -0%
2. O=C(O)C[C@H](NC(=O)c1cc(-c2ccc3c(c2)OCO3)no1)C(=O)O.O=C(O)C[C@H](NC(=O)c1conc1-c1ccc2c(c1)OCO2)C(=O)O  0%
3. Cc1nc(-c2cccc(NC(C)C(=O)Nc3cc(C(F)(F)F)ccc3N3CCOCC3)c2)cs1 (centres undefined)  -0%
4. N#Cc1cncc(-c2nc3c(N4CCN(c5cnccn5)CC4)cccc3n2CCNCc2ccccc2)c1  -0%
5. COc1ccc(CN2CCC(NCc3cccc(-n4ccnc4)c3)CC2)cc1  0.67%
6. O=c1c(NCCCN(Cc2ccc(F)cc2)c2ccccn2)c(NCc2cccnc2)c1=O  0.7%
7. COc1ccc(Cl)cc1N1CCN(CCCNC(=O)c2ccc(-c3nc4cc(Cl)c(F)cc4[nH]3)cc2)CC1  0.72%
8. COC(=O)c1ccc(CN2CCC(N(Cc3cccc(Oc4ccccc4)c3)S(=O)(=O)c3ccc(NC(C)=O)cc3)CC2)cc1  0.72%
9. C=CCOC(=O)O[C@@H]1[C@@H](OC(=O)OCC=C)[C@@H](OC)O[C@H](COC(c2ccccc2)(c2ccccc2)c2ccccc2)[C@H]1OC(=O)OCC=C  0.76%
10. Cc1cc(NC(=O)c2ccc(S(=O)(=O)N(Cc3ccccc3)C(C)C)cc2)no1  0.78%
11. CCC(CC)C(CC(=O)NC(C)(C)CCc1ccccc1OC)Nc1ccc(C#N)c2ccccc12 (centres undefined)  0.95%
12. Cc1ccc(Cn2c(N3CCC(C(=O)NCc4ccccn4)CC3)nc3ccccc32)cc1  1.08%
13. CCc1cc(NCc2ccncc2)nc(Nc2ccc(F)cc2)n1  1.39%
14. Nc1ccc(-c2nc3cc(C4=N[C@H]5CCCC[C@H]5N4)ccc3o2)cc1[N+](=O)[O-]  1.41%
15. OC1(c2ccc(Br)cc2)CCN(C2CCN(Cc3ccccc3)CC2)CC1  1.42%
16. CCN(CC)CCCC(C)Nc1c(-c2ccc(C)cc2)cnc2ccccc12 (centres undefined)  1.45%
17. COc1ccc2nccc([C@@H](O)CN3CCC(NCCOc4ccc(F)cc4Cl)CC3)c2c1  1.49%
18. O=C(Cc1ccc(F)cc1)NC1CCN(c2ccnc3cc(Cl)ccc23)C1 (centres undefined)  1.54%
19. CCOCCCn1c(=N)c(C(=O)NC(C)c2ccccc2)cc2c(=O)n3cccc(C)c3nc21 (centres undefined)  1.69%
20. N#Cc1cccc(C(=O)Nc2cccc(-c3ccc(CN4CCCC4)cc3)c2)c1  1.96%
21. Cc1cc(O)c(CN(C)Cc2ccc3c(c2)OCCO3)cc1C(C)C  2%
22. CCCCCCc1cc2cc(-c3csc(C=Cc4ccccc4)n3)c(=O)oc2cc1O  2.04%
23. COc1cc(CC2c3cc(O)c(Cl)cc3CCN2C)c(OC)cc1C (centres undefined)  2.13%
24. Clc1ccccc1CCNCC1CCN(CC2CCCCC2)CC1  2.17%
25. COc1ccc2c(c1)nc(CNC(=N)N)n2Cc1ccc(Cl)cc1  2.17%
26. CCc1ccc(-c2cnc(N)c3cc(-c4ccnc(N)n4)ccc23)cc1  2.17%
27. COc1ccc2nccc([C@@H](O)CN3CCC(NC(=O)c4cc5ccccc5[nH]4)CC3)c2c1  2.21%
28. Nc1nc(N)c2cc(Sc3ccc4ccccc4c3)ccc2n1  2.48%
29. CS(=O)(=O)CCNCc1cccc(-c2cc3c(Nc4ccc5c(cnn5Cc5ccccc5)c4)ncnc3s2)c1  2.61%
30. CC(=O)Nc1ccc(C(=O)Nc2cccc(-c3cccc(-c4nc5ccccc5[nH]4)c3)c2)cn1  2.7%
31. O=C(Nc1cccc(-c2ccc(CN3CCCC3)cc2)c1)c1ccc(Cl)cc1  2.88%
32. Cc1ccc(NC(=O)c2ccc(-c3cc4cc(Cl)c(Cl)cc4[nH]3)cc2)cc1OCCN1CCCC1  2.9%
33. Cc1ccc(Nc2nc(N/N=C/c3ccccc3[N+](=O)[O-])nc(Nc3ccc([N+](=O)[O-])cc3)n2)cc1C  2.92%
34. CCN(C(=O)c1ccc(NC(=O)c2cccs2)cc1)c1nc2c(C)cccc2s1  3.37%
35. CCc1nnc2sc(-c3cccc(NC(=O)c4ccc(C)c([N+](=O)[O-])c4)c3)nn12  3.45%
36. CCOc1c(Br)cc(C)cc1CNCCCNc1nc2ccccc2[nH]1  3.5%
37. CC1(CCCCN2CCC(Oc3ccc(F)cc3F)CC2)C(=O)Nc2ccccc21 (centres undefined)  3.62%
38. CCCN(CCC)C(=O)c1cc(C(=O)N[C@@H](Cc2ccccc2)[C@H](O)CNC(C)(C)c2cccc(OC)c2)cc(N2CCCCS2(=O)=O)c1  3.62%
39. CC(C)(C)c1ccc(CN2CCCCC(NC(=O)c3cc(-c4cccc(F)c4)cs3)C2)cc1 (centres undefined)  3.64%
40. CNC(=O)C(NC(=O)c1ccccc1C(=O)OC)c1ccccc1 (centres undefined)  3.65%
41. CCn1c(SCC(=O)Nc2cc(C(F)(F)F)ccc2Cl)nc2ccccc2c1=O  3.66%
42. COc1cc(CNC[C@@H](O)[C@H](Cc2ccccc2)NC(=O)c2cc(OC(C)C)cc(N3CCCCS3(=O)=O)c2)cc(OC)c1  3.76%
43. NCc1ccc(-c2ccc3c(N)nccc3c2)cc1  3.85%
44. CNCCNCc1cccc(-c2ccc(-c3nc4cccc(C)c4[nH]3)s2)c1  4%
45. Cc1cccc2nc(-c3ccc(-c4cccc(NC(=O)NCc5ccccc5)c4)cc3)[nH]c12  4.04%
46. CCC1CCCCN1S(=O)(=O)c1ccc(OC)c(N2CCN(C(=O)C(Cl)(Cl)Cl)CC2)c1 (centres undefined)  4.58%
47. O=C(NCc1ccc2c(c1)OCO2)c1nn(CCN2CCC(N3CCCC3)CC2)cc1-c1ccc(Cl)c(Cl)c1  4.73%
48. Cc1cc(N[C@@H](Cc2ccccc2)C(=O)NC2CCCC2)nc(NCCc2ccc(F)cc2)n1  4.88%
49. COc1ccc2nc3cc(Cl)ccc3c(NCCN3CCN(C)CC3)c2c1  4.9%
50. CC(C)CCN1CCC(Oc2ccc(NC(=O)c3ccsc3)cc2Cl)CC1  4.92%
51. CS(=O)(=O)c1ccc(CCNCc2ccc(-c3ccc(CN(C(=O)C4CCCC4)C4CCN(Cc5ccccc5)CC4)cc3)nc2)cc1  4.93%
52. O=C(/C=C/c1ccc(Cl)c(Cl)c1)NC1CCC(CN2CCC(c3coc4ccccc34)CC2)CC1 (centres undefined)  4.93%
53. CCNC(=O)Nc1cccc(-c2cccc(-c3nc4cccc(C)c4[nH]3)c2)c1  5.05%
54. Cc1cc(CNCCCCCCNCc2ccc(-c3ccccc3)cc2)ccc1O  5.11%
55. Cc1ccc2c(N/N=C/c3cccc([N+](=O)[O-])c3)cc(C)nc2c1  5.19%
56. COc1cccc(-c2ccc(C(=O)NCC3CCCN(Cc4cccc(C(F)(F)F)c4)C3)s2)c1 (centres undefined)  5.45%
57. CC(=O)NC(c1cccs1)c1cc(Cl)c2cccnc2c1O (centres undefined)  5.48%
58. O=C1Nc2ccccc2/C1=N/NC(=S)N1CCOCC1  5.52%
59. COc1ccc2nccc(N3CCC(CCNCc4ccc5c(n4)NC(=O)CO5)CC3)c2c1  5.84%
60. N#Cc1cccc(NC(=O)Nc2cccc(-c3cccc(-c4nc5ccccc5[nH]4)c3)c2)c1  6%
61. O=C(Nc1cccc(CN2CCN(C(=O)c3cccc(Cl)c3)CC2)c1)c1cccs1  6.15%
62. Cc1ccc(C(C)C)cc1CON1C(=N)N=C(N)NC1(C)C  6.25%
63. O=C(CNC(=O)c1ccc(O)cc1)Nc1ccc(-c2cccc(-c3nc4cc(C(F)(F)F)ccc4[nH]3)c2)cc1  6.36%
64. CC1(C)NC(N)=NC(=N)N1OCCCc1cccc(C(F)(F)F)c1  6.38%
65. Cc1cc(Nc2ccc(OCc3ccccc3Cl)cc2)c2cc(Cl)ccc2n1  6.38%
66. Nc1ccc2[nH]cc(C3CCN(CC4CCN(C(=O)/C=C/c5ccc(Cl)c(Cl)c5)CC4)CC3)c2n1  6.62%
67. CN(C)CCN(C)Cc1ccc(-c2ccc3c(Nc4ccc(Cl)cc4F)ccnc3c2)o1  6.67%
68. CN1CCN(Cc2ccc(-c3ccc4ncnc(Nc5ccc(OCc6ccccc6)cc5)c4c3)o2)CC1  6.98%
69. ON=C(c1nc2ccccc2[nH]1)c1nc2ccccc2[nH]1  7.09%
70. Cn1nc(-c2cccc(CNCCc3cccs3)c2)c2cnc(NC3CCCC3)nc21  7.69%
71. CC(C)NCc1cccc(-c2ccc(NS(=O)(=O)c3cccc4cccnc34)cc2)c1  7.69%
72. CC(C)Cn1cc(C2CCN(CCN3CCC(CNC(=O)c4ccc(NC(=O)c5ccc(Cl)cc5)cc4)CC3)CC2)c2ccccc21  8.04%
73. O=S(=O)(NCCN1CCCC1)c1ccc(-c2ccc(CN3Cc4ccccc4C3)cc2)s1  8.33%
74. CN(C)CCOc1cc(NC(=O)Nc2cccc3c(-c4ccncc4)cccc23)ccc1I  8.33%
75. N=C(N)NN=C1C=Cc2cccc3cccc1c23  8.57%
76. Cc1ccccc1C1CCN(C2CCC(NC(=O)/C=C/c3ccc(C#N)cc3)CC2)CC1 (centres undefined)  8.62%
77. Cc1ccccc1C1CCN(C2CCC(NC(=O)c3ccc(-c4cccs4)s3)CC2)CC1 (centres undefined)  8.77%
78. COc1cc(C(=O)NC2CC(C)(C)N(C)C(C)(C)C2)ccc1-c1nc2cc(Cl)c(Cl)cc2[nH]1  9.3%
79. O=C(Nc1ccc2c(c1)CCNCC2)c1ccc(-c2ccc(Cl)cc2)cc1  9.66%
80. CC(C)(CNCc1ccc(Cl)c(Cl)c1)c1nc(-c2ccc(Cl)c(O)c2)c(-c2ccncc2)[nH]1  9.93%
81. FC(F)(F)c1cccc(Nc2nc3ccccc3nc2Nc2cccc(C(F)(F)F)c2)c1  10%
82. O=C(c1cnn(-c2ccccc2)c1C(F)(F)F)N1CCN(c2ccnc3cc(Cl)ccc23)CC1  10.1%
83. O=C(Nc1ccc(Cn2ncc(N3CCCNCC3)c(Cl)c2=O)cc1)Nc1ccc(OCc2ccccc2)cc1  10.3%
84. CCc1cc(=O)[nH]c(-n2nc(C)cc2NC(=O)CC(c2ccccc2)c2ccccc2)n1  10.4%
85. O=C(/C=C/c1ccc(Cl)c(Cl)c1)NCCCCCN1CCC(C(=O)Nc2cccc(Cl)c2)CC1  13.5%
86. Nc1nccc(-c2ccc3c(/C=C/c4ccccc4)cnc(N)c3c2)n1  16.2%
87. CC(C)(C)N1CCC(N(Cc2ccc(-c3ccc(C(F)(F)F)cc3)cc2)C(=O)Cn2c(CCc3cccc(F)c3F)nc(=O)c3cccnc32)CC1  16.7%
88. CN(C)Cc1cccc(-c2cc3c(-c4cnn(C)c4)c(Cl)cnc3[nH]2)c1  22.2%
89. Cc1nc(-c2cccc(Nc3nccc(NCC(O)c4ccccc4)n3)c2)cs1 (centres undefined)  24.1%
